Experimental data as given in the RNAGym collection of RNA variant scans (doi:10.1093/nar/gkz1192).
Read counts are not given, so values of variants with three or more changes are uncertain.

B1: CPEB3 Ribozyme (parent)
chain: UAACAGGGGGCCACAGCAGAAGCGUUCACGUCGCAGCCCCUGUCAGAUUCUGGUGAAUCUGCGAAUUCUGCUGUAUAUCUC

Variants of: B1
Assay: self-cleavage, relative activity (ratio to wild type); higher = more cleavage; in vitro, sequencing
Summary of the method: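 For each CPEB3 ribozyme variant, relative activity is its cleaved/total read fraction divided by the unmutated ribozyme's. Barcoded error-prone PCR libraries were transcribed by T7 RNA polymerase (5 hours, 37°C) and held in DNase I for 15 min before an EDTA stop, with cleavage occurring throughout. Template-switching reverse transcription and Illumina sequencing were used to read the RNAs. A 5-read minimum applied, and results are the mean of three batches.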

Variant	self-cleavage
A5U A21G U25A A35U A45G U54C	0.32
A5U A21G U25A U31G	0.17
A5U A21G U26C C34U A64U C71U U76C	0.05
A5U A21G U78G	0.95
A5U A21U A57G A64G U67C C79A	0.12
A5U A21U U41C U51A U67A G70A U72A	0.07
A5U A28C U51C	0.53
A5U A28G A56U U78C	0.24
A5U A28G A57G U58C A77U	0.17
A5U A28G C40A	0.16
A5U A28G U51C U74C	0.79
A5U A28G U72C U78C	1.01
A5U A28G U80A	1.29
A5U A28U A35G U41C U54C A75U	1.19
A5U A28U A45G U69C U78G	0.68
A5U A28U G33A U43C A57G U67C	0.09
A5U A35C U54C U80C	0.89
A5U A35G G42A U51C U58G	0.13
A5U A35U G61A U72C	0.13
A5U A35U U49A	0.38
A5U A47G U48C U72C	0.61

Variant	self-cleavage
A5U A56G U67G U80A	0.34
A5U A56U A64G	0.79
A5U A56U G63C	0.18
A5U A56U U58C	0.35
A5U A56U U69A U72A	0.3
A5U A57G U69C U72C C81U	0.22
A5U A65G U69A	0.21
A5U C11A A21G U69A U72C	0.03
A5U C11A A35U G36U C38A C40A U80C	0.07
A5U C11A C37G U43C U69C	0.24
A5U C11G A28U A35U U41C A64G C81U	0.04
A5U C11G U26C U41G U49C U67A	0.07
A5U C11U C17U A18G A65U	0.19
A5U C12A A28G	0.42
A5U C12A U49A	0.86
A5U C12G A56G A57U U80C	0.29
A5U C12U A13G G53A A64U	0.29
A5U C12U A13U U54A G63C A65G U76A	0.68
A5U C12U A15G U72A	0.48
A5U C12U A15U A20U U60A A64U A77U	0.08
A5U C14A U69C	0.52

Variant	self-cleavage
A5U C14U A20G C29U U49A A65G	0.08
A5U C14U A35U	0.98
A5U C17A U25C U80A	0.09
A5U C17U A45G	0.79
A5U C17U C23U U43A A56U U60C U72G	0.04
A5U C17U G70A U72A	1.23
A5U C23U A28U U49G	0.37
A5U C29U A35G U60C U78C	0.43
A5U C29U A35G U69C G70A U80C	0.52
A5U C29U A47G U72A	0.17
A5U C29U U31C U41G U60C	0.1
A5U C32A U41C U51C	0.24
A5U C34A G55A A77C	0.08
A5U C37A A45U U66C	0.09
A5U C37U U41C U69A U72C	0.34
A5U C38U U58A	0.35
A5U C39U U48C	0.41
A5U C40U U51A	0.94
A5U G6A A21G U25A A47U	0.1
A5U G6A C17G C32G U49C A65U	0.11
A5U G7C A20G A21C U26C A28U	0.15

Variant	self-cleavage
A5U G7C U26C A28G C39A A45G U76A	0.05
A5U G7C U60C	0.49
A5U G7U A15G U31C A57G	0.39
A5U G7U A21G A28G U41G U78A	0.04
A5U G8A A15G A18G U78C	0.58
A5U G8A A20G U26C U31C C39A U72A	0.05
A5U G8A G9C A28G U48A C59G A64G	0.05
A5U G8U A15G A18G A28G U54G	0.41
A5U G8U C11U A56G	0.07
A5U G8U U72A	0.17
A5U G9A A13U A15C A18U	0.62
A5U G9A A28U U76C	0.22
A5U G9A C29U U49C U54C A75U	0.05
A5U G9A C37A A65G G73A	0.05
A5U G9A U31A U60A A65G U67C	0.05
A5U G9A U54A U67C	0.16
A5U G9C G22A A56U	0.47
A5U G9U G53A G63A U69A	0
A5U G9U U69C U74C	0.08
A5U G10A A15G G24A C32A U72C	0.46
A5U G10A G24A C27U A57C U60C U76C	0.04
